Data published in PubChem BioAssay AID1347428 (National Center for Advancing Translational Sciences (NCATS), 2020).
Screen size: about 91,000 compounds; about 290 (0.32%) were called active. Inconclusive means that the source gave no clear call. Such entries were picked first, then a sample of the others. The call rests on the fitted dose curve; in most records, active means well fitted inhibition curve with a large enough effect; inconclusive means small, poorly fitted or top-dose-only effect; inactive means no such curve, though single readings can be large or run the other way. Potencies of inconclusive entries are doubtful fits and often do not repeat.
Further: nearly all actives have a fitted effect of over 25% in size.
On the % scale 0 is the no-effect control and ±100 the full control effect; potency means the concentration at half of the fitted maximal effect; tags describe the fitted curve by direction and shape.

What follows are molecules tested against Single-stranded DNA cytosine deaminase (Homo sapiens) (UniProt Q9GZX7) (assay: Primary qHTS assay for inhibitors of Activation Induced Cytidine Deaminase (AID): AID signal). Settings: AID deamination FRET fluorescence, UDG-coupled, 4 h; activity change, negative = inhibition: at 115 µM (top of the series).
Sequence of UniProt Q9GZX7 (Q9GZX7 whole entry, looked up): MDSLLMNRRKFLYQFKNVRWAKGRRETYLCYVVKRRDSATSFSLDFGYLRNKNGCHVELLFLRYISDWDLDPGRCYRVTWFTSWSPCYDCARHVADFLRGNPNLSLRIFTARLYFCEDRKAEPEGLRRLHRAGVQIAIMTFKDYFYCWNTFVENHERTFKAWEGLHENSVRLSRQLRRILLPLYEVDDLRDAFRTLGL
For `CCN(CC(=O)NC)S(=O)(=O)c1ccc(C)c2ncccc12`, the “activity change, negative = inhibition” value was inactive: 4.14%. In the case of `CCCCOc1cccc(C(=O)N(Cc2sccc2C)C2CCS(=O)(=O)C2)c1` (stereo not given), the Potency is reported as inconclusive: 70.8 µM [inhibitor, partial curve]. In the case of `Cc1ccc(OCc2ccc(C(N)=O)cc2)cc1`, the “activity change, negative = inhibition” value is reported as inactive: 0.875%. With `COc1cc(NC(=O)CSc2ncc(S(=O)(=O)c3ccc(Br)cc3)c(=O)[nH]2)cc(OC)c1` the Potency was inconclusive: 50.1 µM [inhibitor, partial curve, poor fit]. In the case of `Cc1ccc(C(=O)NC(C)(C)CO)cc1`, the “activity change, negative = inhibition” value is reported as inactive: 2.75%. For `Cc1ccc(NC(=O)CCCc2nc3ccccc3o2)c(C)c1`, the “activity change, negative = inhibition” value was inactive: -11.5%. For `COc1ccc(CNC(=O)c2ccc(CS(=O)(=O)c3ccccc3OC)o2)cc1`, the “activity change, negative = inhibition” value was inactive: 7.62%. With `CCCCNc1nc2c(c(=O)n(Cc3ccc(Cl)cc3)c(=O)n2C)n1C` the Potency was inconclusive: 14.1 µM [inhibitor, full curve, poor fit]. For `CN1C(=O)C2(C(C#N)=C(N)N(c3ccccc3)C3=C2C(=O)OC3)c2ccccc21` (stereo not given), the “activity change, negative = inhibition” value was inactive: 1.97%. For `CCOc1ccccc1N1CC(c2nc3ccccc3n2CCOc2ccccc2)CC1=O` (stereo not given), the Potency was inconclusive: 56.2 µM [inhibitor, partial curve, poor fit]. `Cc1cc(C)c2c(CC(=O)N3CCN(c4cccc(Cl)c4)CC3)coc2c1` was tested, and the Potency was inconclusive: 50.1 µM [inhibitor, full curve, poor fit]. `Cc1cn[nH]c1C#N` was tested, and the “activity change, negative = inhibition” value was inactive: 4.84%. For `C/C(=N/NC(=S)Nc1ccc(Cl)cc1)c1ccc(Br)cc1`, the “activity change, negative = inhibition” value was inactive: -2.08%. With `COc1ccc(OC)c(CCNC(=O)CCCn2c(=O)c3cccn3c3ccccc32)c1` the Potency was inconclusive: 79.4 µM [inhibitor, partial curve, poor fit]. With `Cc1cc2ccccc2n1CCNC(=O)c1cccc(Br)c1` the “activity change, negative = inhibition” value was inactive: -23.9%. For `COc1ccc(-c2ccc(CCC(=O)O)n2NC(=O)c2ccccc2Cl)cc1`, the “activity change, negative = inhibition” value was inactive: -5.05%. With `CC(=O)c1ccc(C(=O)N(C)Cc2ccc(F)cc2)s1` the “activity change, negative = inhibition” value was inactive: 34.3%. With `Cc1ccc(C)c(NC(=O)c2cnn(-c3cccc(F)c3)c2C2CCN(C(=O)OC(C)(C)C)CC2)c1` the Potency was inconclusive: 17.8 µM [inhibitor, full curve, poor fit]. With `COc1ccc(N2C(=O)c3cc4occc4n3CC2(C)C(=O)NC2CCCCCC2)cc1OC` (stereo not given) the “activity change, negative = inhibition” value was inactive: -0.624%. With `CCOc1cc(CNC(=O)c2sc3ncnc(N(C)C4CCCCC4)c3c2C)ccc1OC` the Potency was inconclusive: 70.8 µM [inhibitor, partial curve, poor fit]. For `CCc1nc2ccccc2n1CCCCOc1ccc(C)cc1`, the Potency was inconclusive: 22.4 µM [inhibitor, full curve, poor fit]. For `Cc1ccc2c(Sc3ccc(Cl)cc3)c(C(=O)N3CCC(C)CC3)[nH]c2c1`, the Potency was inconclusive: 20 µM [inhibitor, single point]. For `Cc1ccc(N2C(=O)CSC23C(=O)N(CC(=O)NCc2ccccc2)c2ccccc23)cc1C` (stereo not given), the Potency was inconclusive: 56.2 µM [inhibitor, partial curve, poor fit]. In the case of `COc1cc(-c2cc(OC)c3c(C)oc(C)c3c(=O)c2)ccc1OC(=O)c1ccccc1Cl`, the Potency is reported as inconclusive: 79.4 µM [inhibitor, partial curve, poor fit]. For `CCc1ccc(C(=O)c2cn(CC(=O)Nc3ccc4c(c3)OCO4)c3cc(OC)c(OC)cc3c2=O)cc1`, the Potency was inconclusive: 39.8 µM [inhibitor, partial curve, poor fit]. With `CCOC(=O)C1CCC(CN(Cc2cccc(Br)c2)S(=O)(=O)c2ccc(C)cc2)CC1` (stereo not given) the Potency was inconclusive: 79.4 µM [inhibitor, single point]. In the case of `CCc1ccccc1NC(=O)c1c(NC(=O)c2ccccc2)sc2c1CCCC2`, the Potency is reported as inconclusive: 50.1 µM [inhibitor, partial curve, poor fit]. In the case of `Cc1ccc(-c2nnc(SCc3ccccc3C)o2)cc1`, the Potency is reported as inconclusive: 2.82 µM [inhibitor, full curve, poor fit]. For `O=C(NCCc1ccccc1Cl)c1ccc(Cn2c(=O)c3cccn3c3cccnc32)cc1`, the Potency was inconclusive: 79.4 µM [inhibitor, partial curve, poor fit]. In the case of `Cc1ccccc1N1CC(c2nc3ccccc3n2CCC2CCCCC2)CC1=O` (stereo not given), the Potency is reported as inconclusive: 79.4 µM [inhibitor, partial curve, poor fit]. `Cc1ccc(C(C)C)c(OCC(=O)NCC2(N(C)C)CCCCC2)c1` was tested, and the Potency was inconclusive: 39.8 µM [inhibitor, single point]. With `CCCCCn1c(C(C)NC(=O)c2ccccc2)nc2ccccc21` (stereo not given) the Potency was inconclusive: 89.1 µM [inhibitor, partial curve, poor fit]. For `COc1ccc2c(CNCc3cccs3)c(C(=O)O)n(Cc3ccccc3)c2c1`, the “activity change, negative = inhibition” value was inactive: -1.62%. In the case of `Cc1nc2c(cc(Oc3cnccn3)c3ccsc32)s1`, the “activity change, negative = inhibition” value is reported as inactive: 42.2%. `Cc1c(F)cccc1NC(=O)C12CC3CC(CC(C3)C1)C2` was tested, and the “activity change, negative = inhibition” value was inactive: -16.2%. In the case of `Cc1ccc(C(=O)Nc2sc3c(c2C(=O)NCc2ccco2)CCC(C(C)(C)C)C3)cc1` (stereo not given), the “activity change, negative = inhibition” value is reported as inactive: -27.2%. `Cc1ccc(C)c(N2CCN(CCCNC(=O)c3cnn(-c4ccccc4Cl)c3C3CCN(C(=O)OC(C)(C)C)CC3)CC2)c1` was tested, and the Potency was inconclusive: 12.6 µM [inhibitor, full curve, poor fit]. In the case of `Cc1c(C(=O)N(Cc2cccc(Cl)c2)Cc2ccco2)oc2ccccc12`, the Potency is reported as inconclusive: 28.2 µM [inhibitor, single point]. With `COc1cccc(NC2=CC(c3ccc(C(C)C)cc3)N(c3cccc(OC)c3)C2=O)c1` (stereo not given) the Potency was inconclusive: 50.1 µM [inhibitor, partial curve, poor fit]. For `Cc1ccc(CNC(=O)C2CCN(S(=O)(=O)/C=C/c3ccccc3)CC2)cc1`, the “activity change, negative = inhibition” value was inactive: 1.75%. For `CCOc1ccc(NC(=O)c2c(NC(=O)c3ccncc3)sc3c2CCC(C(C)(C)C)C3)cc1` (stereo not given), the Potency was inconclusive: 39.8 µM [inhibitor, single point]. `COc1cccc(/C=C/c2nc3ccccc3c(=O)n2-c2ccc(C)c(C)c2)c1OC` was tested, and the Potency was inconclusive: 22.4 µM [inhibitor, full curve, poor fit]. With `CC(=O)N1c2ccccc2CC1C(=O)N1CCN(c2cc(Cl)ccc2C)CC1` (stereo not given) the Potency was inconclusive: 50.1 µM [inhibitor, partial curve, poor fit]. With `CCC(C(=O)Nc1ccc(F)cc1F)n1nc(-c2ccccc2)c2c(c1=O)CCCC2` (stereo not given) the Potency was inconclusive: 10 µM [inhibitor, full curve, poor fit]. For `CC1CCN(c2nc(SCC(=O)N3CCOCC3)c(C#N)c3c2CCCC3)CC1`, the Potency was inconclusive: 50.1 µM [inhibitor, partial curve, poor fit]. For `O=Cc1cccc(OCc2ccc(Br)cc2)c1`, the “activity change, negative = inhibition” value was inactive: -14.3%. In the case of `CCc1ccccc1N(C)C(=O)c1cc2c(Cl)nc3ccc(C)cc3c2s1`, the Potency is reported as inconclusive: 22.4 µM [inhibitor, full curve]. In the case of `CCN(Cc1ccccc1)C(=O)CCS(=O)(=O)c1cc(Br)cc2c1N(C(=O)C1CC1)CC2`, the Potency is reported as inconclusive: 100 µM [inhibitor, single point]. For `CN(c1ccccc1)S(=O)(=O)c1nnc(NC(=O)c2cccs2)s1`, the Potency was inconclusive: 56.2 µM [inhibitor, partial curve, poor fit]. For `Cc1ccc(C)c(N2CCN(S(=O)(=O)c3ccc(F)c(C(=O)Nc4ccc(Cl)cc4Cl)c3)CC2)c1`, the Potency was inconclusive: 17.8 µM [inhibitor, single point]. For `COc1ccc(OC)c(CCNC(=O)c2cc3cccc4c3n2CCS4)c1`, the Potency was inconclusive: 28.2 µM [inhibitor, partial curve, poor fit]. In the case of `O=c1c(NCCc2ccc(Cl)cc2)nccn1-c1ccccc1`, the “activity change, negative = inhibition” value is reported as inactive: 19.8%. For `COc1ccc(-n2ncc(C(=O)NCc3ccc4c(c3)OCO4)c2C2CCN(C(=O)OC(C)(C)C)CC2)cc1`, the Potency was inconclusive: 44.7 µM [inhibitor, partial curve, poor fit]. In the case of `CCc1cccc(N2C(=O)CSC23C(=O)N(Cc2ccccc2F)c2ccccc23)c1` (stereo not given), the Potency is reported as inconclusive: 15.8 µM [inhibitor, single point]. For `Cc1cccc(OCC(=O)Nc2cccc(C(=O)OCc3cc(=O)n4c(C)csc4n3)c2)c1`, the Potency was inconclusive: 50.1 µM [inhibitor, partial curve, poor fit]. `Cc1cc(C)c(NC(=O)COCc2cc(-c3cccs3)on2)c(C)c1` was tested, and the Potency was inconclusive: 56.2 µM [inhibitor, partial curve, poor fit]. In the case of `CCCCNC(=O)c1cnn2c(C)c(Cc3c(C)cc(C)cc3C)c(C)nc12`, the Potency is reported as inconclusive: 50.1 µM [inhibitor, partial curve, poor fit]. With `Cc1cc(C)c(NC(=O)Cn2nnc(C(=O)NCc3cccs3)c2N)c(C)c1` the Potency was inconclusive: 17.8 µM [inhibitor, single point]. `Cc1ccc(C(NC(=O)CCl)C2CC2)cc1` (stereo not given) was tested, and the “activity change, negative = inhibition” value was inactive: -4.61%. With `Cc1ccc2c(c1)-c1c(cnn1CC(=O)N1CCN(c3cccc(C(F)(F)F)c3)CC1)CO2` the Potency was inconclusive: 22.4 µM [inhibitor, full curve]. With `CC(=O)Nc1ccc(SCCS(=O)c2ccccc2)cc1` (stereo not given) the “activity change, negative = inhibition” value was inactive: 0.316%. In the case of `COc1ccc(NC(=O)c2nn(C)c3c2CSc2ccc(C)cc2-3)cc1OC`, the Potency is reported as inconclusive: 28.2 µM [inhibitor, single point]. For `Cn1c(=O)c2c(-c3ccccc3)n3c(c2n(C)c1=O)C(c1cc(Cl)ccc1O)Nc1ccccc1-3` (stereo not given), the “activity change, negative = inhibition” value was inactive: -24.4%. With `CC(Sc1nnc(-c2cccs2)n1-c1ccccc1)C(=O)Nc1ccc2c(c1)OCO2` (stereo not given) the Potency was inconclusive: 39.8 µM [inhibitor, partial curve, poor fit]. `Cc1ccc(C)c(N2CCN(CCCNc3ncnc4onc(-c5ccc(Cl)cc5)c34)CC2)c1` was tested, and the Potency was inconclusive: 56.2 µM [inhibitor, partial curve, poor fit].
